Measured values: PubChem BioAssay AID686978 (National Center for Advancing Translational Sciences (NCATS), 2013)
The whole screen tested about 420,000 compounds, of which about 64,000 (15%) were called active. Inconclusive results, whose numbers are uncertain, are shown with a selection of clear calls. Calls come from the whole dose curve; as a rule, active = well fitted inhibition curve with a large enough effect; inconclusive = small, poorly fitted or top-dose-only effect; inactive = flat fitted curve, though single readings scatter. No potency is given beside an inconclusive call; the fits are too rough.

Assay: qHTS for Inhibitors of human tyrosyl-DNA phosphodiesterase 1 (TDP1): qHTS in cells in absence of CPT; note: nearly all actives have a fitted effect of over 55% in size
Settings: DT40 Tdp1-/- hTDP1 cells, no CPT, ATP luminescence, 48 h; series mostly up to 46.2 µM
How it was run: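 Growth kinetics read by CellTiter-Glo luminescence after ≥48 hr at 37 °C. Cells: DT40 Tdp1-/- stably carrying human TDP1, 400 per well, compound exposure in the absence of CPT (DMSO vehicle).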
Potency is the fitted concentration of half-maximal effect; tags give direction and shape of the fitted curve.

Structure (SMILES) | Potency
Cc1cccn2c(=O)c3cc(C(=O)NC(C)c4ccccc4)c(=N)n(CCOCCO)c3nc12 (stereo unspecified) | active: 25.9 µM
Cc1ccc2nc(-c3ccccc3)c(-c3ccccc3)nc2c1 | inconclusive [inhibitor, single point]
COc1ccc2c(c1)Cc1sc(NC(=O)c3ccc(Cl)cc3)nc1-2 | active: 13 µM
O=C(O)C1CC=CCC1C(=O)Nc1cc(Cl)ccc1Cl (stereo unspecified) | inactive
COc1ccc(NC(=O)[C@@H](NC(=O)c2ccccc2F)C(C)C)cc1S(=O)(=O)N1CCOCC1 | inactive
CN(Cc1ccccc1Cl)C(=O)c1cnccc1C(F)(F)F | inconclusive [inhibitor, partial curve, poor fit]
COc1ccc(N2CC(NS(=O)(=O)c3ccc4ccccc4c3)CC2=O)cc1OC (stereo unspecified) | inconclusive [inhibitor, single point]
CCc1ccc(NC(=O)COC(=O)/C(=C/c2ccccc2OC)c2ccccc2)cc1 | inconclusive [inhibitor, single point]
COc1cccc(CC2(CO)CCCN(Cc3ccc(OC(F)F)cc3)C2)c1 (stereo unspecified) | inconclusive [inhibitor, single point]
COc1nccnc1NS(=O)(=O)c1ccc(N=Cc2c(C)[nH]n(-c3ccc(C)c(C)c3)c2=O)cc1 | active: 9.2 µM
Cc1ccccc1-c1noc(-c2ccc(N3CCCC3)c([N+](=O)[O-])c2)n1 | inactive
CC(C)c1ccc(-c2noc(SCC(=O)N(C)c3ccc(F)cc3)n2)cc1 | active: 23.1 µM
CCOc1cc(C(=O)OCC(=O)Nc2ncc(Cl)c(C)c2Cl)ccc1OCC(=O)N1CCOCC1 | inconclusive [inhibitor, single point]
Cc1ccc([C@H]2N[C@]3(CCCN(CC4CCCCC4)C3=O)[C@H]3C(=O)N(C)C(=O)[C@@H]23)cc1 | inactive
CCN(C(=O)c1ccncc1)c1c(N)n(Cc2ccccc2)c(=O)[nH]c1=O | inactive
O=C(NNC1=Nc2ccccc2SC1)c1ccccc1F | inconclusive [inhibitor, single point]
S=C(NCc1ccccc1)N1CCN(c2ccccc2)CC1 | inconclusive [inhibitor, single point]
Cc1ccc(S(=O)(=O)N2C[C@@H]3[C@H]4CC[C@H](C4)[C@@H]3[C@@H](C)[C@@H]2c2cn(Cc3ccccc3)c3ncccc23)cc1 | active: 20.6 µM
CCOc1ccc(N(C(=O)c2ccc(OC)cc2)S(=O)(=O)c2ccc3c(c2)n(C)c(=O)n3C)cc1 | inconclusive [inhibitor, single point]
O=C(C[n+]1cccc(Br)c1)c1cccc([N+](=O)[O-])c1 | inactive
COc1cccc(C2C(C(=O)Nc3ccccc3)=C(C)N=c3s/c(=C/c4ccc(OCC(=O)O)cc4)c(=O)n32)c1 (stereo unspecified) | inactive
CC(=O)N(c1ccc2oc(=O)sc2c1)S(=O)(=O)c1ccc(C)cc1 | active: 16.4 µM
Cc1ccc(NC(=O)COC(=O)c2ccc3c(c2)C(=O)N(CCc2ccccc2)C3=O)c(C)c1 | active: 6.51 µM
Cn1nccc1C(=O)Nc1ccccc1C(=O)O | inconclusive [inhibitor, partial curve]

Structure (SMILES) | Potency
O=C(c1ccc(S(=O)(=O)N2CCCC2)cc1)N1CCN(Cc2ccc3c(c2)OCO3)CC1 | active: 16.4 µM
O=C(c1ccc(Cn2c(=S)[nH]c3ccc(N4CCOCC4)cc3c2=O)cc1)N1CCN(c2ccc(F)cc2)CC1 | active: 16.4 µM
COc1ccc(OC(=O)CCc2c[nH]c3ccccc23)cc1 | inconclusive [inhibitor, single point]
CCC(CC)C(=O)Nc1cc(C(=O)OC)ccc1C(=O)OC | inconclusive [inhibitor, single point]
O=C(CN1CCc2ccccc21)NC(=O)NCc1ccccc1 | inconclusive [inhibitor, single point]
Cc1ccc2nc(-c3ccc(NC(=O)C4CCCO4)cc3)[nH]c2c1 (stereo unspecified) | inconclusive [inhibitor, single point]
Cc1onc(-c2ccccc2)c1C(=O)Nc1ccc(Cl)c(S(=O)(=O)N2CCOCC2)c1 | inactive
CCOc1cc(C2C(C#N)=C(N)Oc3n[nH]c(CC)c32)ccc1OCCN1CCOCC1 (stereo unspecified) | inactive
N#Cc1ccccc1OCC(=O)NC(=O)NC1CCS(=O)(=O)C1 (stereo unspecified) | inactive
O=C(NS(=O)(=O)Nc1ccccc1)C1=C(N2CCCC2)COC1=O | inactive
O=C(COC(=O)c1ccc(NS(=O)(=O)c2cccs2)cc1O)Nc1ccc(F)cc1 | inactive
COc1cccc(-n2c(SCC(=O)NCCC3=CCCCC3)nc3n[nH]c(C)c3c2=N)c1 | active: 14.6 µM
COc1ccc(Oc2cc(C(F)(F)F)cnc2C(N)=O)cc1 | inactive
COc1ccc(OC)c(C(=O)C2COC(=O)C2)c1 (stereo unspecified) | inconclusive [inhibitor, single point]
CCC(=O)OC1=CN(Cc2ccccc2)S(=O)(=O)c2ccccc21 | inactive
Cc1ccc(N2C(N)=NC(N)=NC23CCCC3)c(C)c1 | inconclusive [inhibitor, partial curve]
COc1ccc(C2Nc3ccccc3C(=O)N2Cc2ccccc2)cc1COc1ccc([N+](=O)[O-])cc1 (stereo unspecified) | inconclusive [inhibitor, partial curve]
CC(C)c1ccc(NC(=O)CN2C=NS(=O)(=O)c3ccccc32)cc1 | inactive
Cc1cc(C(F)F)n2nc(C(=O)Nc3sc4c(c3C(N)=O)CCC4)nc2n1 | inconclusive [inhibitor, single point]
CCCc1cc(=O)oc2c3c(cc(OCC(=O)NCCCn4ccnc4)c12)OC(C)(C)CC3 | active: 25.9 µM
COC(=O)c1cc2oc(C)cc2n1Cc1ccc(C)cc1 | inconclusive [inhibitor, partial curve]
CCCN(CCC)C(=O)c1oc2ccccc2c1NC(=O)Cc1cccc(OC)c1 | inconclusive [inhibitor, single point]
N#C/C(=C/c1ccc(N2CCCCCC2)o1)c1ccc(F)cc1 | active: 4.61 µM
OC(c1ccccc1)c1ncc(-c2cccc(OCc3ccccc3)c2)[nH]1 (stereo unspecified) | inconclusive [inhibitor, partial curve, poor fit]

Structure (SMILES) | Potency
COc1ccc([C@H]2CC(=O)C=C(c3ccc(OC(F)(F)F)cc3)C2)cc1 | inconclusive [inhibitor, partial curve]
Cc1ccc2nc(SCC(=O)NC3CCCc4ccccc43)[nH]c2c1 (stereo unspecified) | active: 16.4 µM
COc1cccc(-c2nc(N3CCN(C)CC3)c3ccccc3n2)c1O | active: 16.4 µM
CCS(=O)(=O)N1Cc2ccccc2CC1C(=O)N1CCN(c2cccc(C)c2C)CC1 (stereo unspecified) | active: 14.6 µM
O=C1CC(c2ccc(F)cc2)Cc2nc(N3CCOCC3)ncc21 (stereo unspecified) | inconclusive [inhibitor, partial curve, poor fit]
COc1ccc(C(Nc2ccccn2)c2c(NC(=O)c3ccco3)sc(C)c2C)cc1 (stereo unspecified) | inconclusive [inhibitor, single point]
C[C@H](CO)N1C[C@H](C)[C@@H](CN(C)S(=O)(=O)c2ccccc2)Oc2c(NC(=O)Nc3ccc(C(F)(F)F)cc3)cccc2C1=O | active: 16.4 µM
Cc1cc(C)cc(NC(=O)CSc2nnc(CNC(=O)c3c(F)cccc3Cl)o2)c1 | inactive
Cc1ccc(S(=O)(=O)N2CCN(C(=O)COC(=O)c3ccc(C(C)(C)C)cc3)CC2)c(C)c1 | inconclusive [inhibitor, single point]
CCN(CC)S(=O)(=O)c1ccc2c(c1)N(CC(=O)Nc1c(C)cc(C)cc1C)C(=O)CS2 | inconclusive [inhibitor, single point]
NC1=NC(=O)C(CC(=O)c2ccc(Cl)cc2)S1 (stereo unspecified) | inactive
Cc1ccccc1CNC(=O)Nc1ccc(Cl)cc1 | inactive
O=C(NC(=O)c1ccc(F)cc1)Nc1nc(-c2cccs2)cc(C(F)(F)F)n1 | inconclusive [inhibitor, single point]
S=c1[nH]nc(C(c2ccccc2)C2CCCCC2)o1 (stereo unspecified) | inactive
CC(=O)C1=C(O)C(=O)N(c2ccc(Br)cn2)C1c1ccc(Br)cc1 (stereo unspecified) | inconclusive [inhibitor, single point]
Cn1c(-c2ccc3nc(N)sc3c2)nc2cc(N)ccc21 | active: 23.1 µM
CC1CC(C)CN(c2ccc(-n3cnnn3)cc2[N+](=O)[O-])C1 (stereo unspecified) | inconclusive [inhibitor, single point]
COc1ccc(-c2c(-c3ccc4c(c3)OCO4)c3ccccc3n2C)cc1 | inconclusive [inhibitor, single point]
c1ccc(CSc2ccc(-c3cccnc3)nn2)cc1 | inconclusive [inhibitor, partial curve, poor fit]
CN(CCOc1ccc(-c2ccn(S(=O)(=O)c3cccc4ccccc34)n2)cc1)c1ccccn1 | inconclusive [inhibitor, partial curve, poor fit]
Cc1nn(CC(C)C(=O)N2CCN(S(=O)(=O)c3ccc(Cl)cc3)CC2)c(C)c1C (stereo unspecified) | inactive
CCS(=O)(=O)c1ccc(O)c(NC(=O)COc2ccc(Br)cc2)c1 | inconclusive [inhibitor, partial curve, poor fit]
N#C/C(=C\c1c(Oc2ccc(F)cc2)nc2ccccn2c1=O)c1nc2ccccc2s1 | active: 11.6 µM
